Measured values published in a collection of fitness landscapes (doi:10.1016/j.celrep.2020.107928).
In all, about 81,000 sequences were measured (“one-hybrid fitness for binding NBS DNA”: median about -0.1, highest 2% from about 0.36 on). Some of the results follow.

B1: Caulobacter ParB omega fusion; a variant is named by its letters at X, in order, B8GW30 (parent)
chain: MESVVVGEPGMSEGRRGLGRGLSALLGEVDAAPAQAPGEQLGGSREAPIEILQRNPDQPRRTFREEDLEDLSNSIREKGVLQPILVRPSPDTAGEYQIVAGERAWRAAQRAGLKTVPIMVRELDDLAVLEIGIIENVQRADLNVLEEALSYKVLMEKFERTQENIAQTIGKSXSHVANXMRLLXLPDEVQSYLVSGELTAXHARAIAAAADPVALAKQIIEGGLSVRETEALARKAPNLSAGKSKGGRPPRVKDTDTQALESDLSSVLGLDVSIDHRGSTGTLTITYATLEQLDDLCNRLTRGI

Variants of: B1
Experiment: one-hybrid fitness for binding NBS DNA (the Noc-binding site; scaled: cognate 1, non-cognate 0); higher = stronger binding
Conditions: with NBS DNA site
How it was run: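 Values were rescaled so that cognate is 1 and non-cognate is 0. Each is a fitness, the log change in a variant's read ratio to wild type from Illumina reads of plasmids before and after selection, with three replicate libraries pooled and variants under 10 reads dropped. Selection of the Caulobacter ParB libraries, four specificity codons randomised, used E. coli USO with a HIS3 reporter, site 19 bp from the promoter, on M9-minus-histidine with 0.1 mM IPTG and 5 mM 3-AT for 48 hours at 37°C.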

Row | Variant | one-hybrid fitness for binding NBS DNA
1 | HSRH | ≤ 0.2
2 | RHQG | ≤ 0.2
3 | SPAT | ≤ 0.2
4 | ASKC | ≤ 0.2
5 | PSDI | ≤ 0.2
6 | FMAG | ≤ 0.2
7 | CGRY | ≤ 0.2
8 | LAVW | ≤ 0.2
9 | ETKC | ≤ 0.2
10 | EHLS | ≤ 0.2
11 | EISP | ≤ 0.2
12 | QVND | ≤ 0.2
13 | KRPC | ≤ 0.2
14 | TEVA | ≤ 0.2
15 | ACPV | ≤ 0.2
16 | PYIV | ≤ 0.2
17 | GMPR | ≤ 0.2
18 | GNRY | ≤ 0.2
19 | WSGT | ≤ 0.2
20 | ATNV | ≤ 0.2
21 | GHAF | ≤ 0.2
22 | SYWG | ≤ 0.2
23 | RMVT | 0.296
24 | RCIC | ≤ 0.2
25 | PKTF | ≤ 0.2

Row | Variant | one-hybrid fitness for binding NBS DNA
26 | AYAW | ≤ 0.2
27 | TCVG | ≤ 0.2
28 | REIP | ≤ 0.2
29 | PARP | ≤ 0.2
30 | YRAA | ≤ 0.2
31 | KPWR | ≤ 0.2
32 | EQSC | ≤ 0.2
33 | TDLE | ≤ 0.2
34 | HSSH | ≤ 0.2
35 | CMYR | ≤ 0.2
36 | CIRR | ≤ 0.2
37 | LWVS | ≤ 0.2
38 | VVKF | ≤ 0.2
39 | YFAL | ≤ 0.2
40 | RMGM | ≤ 0.2
41 | ASEP | ≤ 0.2
42 | DHDF | ≤ 0.2
43 | PYGM | ≤ 0.2
44 | PLKQ | ≤ 0.2
45 | NNWT | ≤ 0.2
46 | CGKC | ≤ 0.2
47 | RDIH | ≤ 0.2
48 | QQLF | ≤ 0.2
49 | RRGS | 0.55
50 | MLQM | ≤ 0.2

Row | Variant | one-hybrid fitness for binding NBS DNA
51 | GQGS | ≤ 0.2
52 | RPIT | ≤ 0.2
53 | QMVN | ≤ 0.2
54 | STRM | ≤ 0.2
55 | VMTM | ≤ 0.2
56 | LANF | ≤ 0.2
57 | DGTW | ≤ 0.2
58 | PQVQ | ≤ 0.2
59 | QQLW | ≤ 0.2
60 | GLKC | ≤ 0.2
61 | HAEG | ≤ 0.2
62 | GMRF | ≤ 0.2
63 | PSHN | ≤ 0.2
64 | CKLG | ≤ 0.2
65 | FPCG | ≤ 0.2
66 | VHVL | ≤ 0.2
67 | NTIR | ≤ 0.2
68 | STVD | ≤ 0.2
69 | PFPD | ≤ 0.2
70 | GIDT | ≤ 0.2
71 | SAML | ≤ 0.2
72 | NRIA | ≤ 0.2
73 | RDND | ≤ 0.2
74 | TWCT | ≤ 0.2
75 | QPEI | ≤ 0.2

Row | Variant | one-hybrid fitness for binding NBS DNA
76 | PATK | ≤ 0.2
77 | RDAT | ≤ 0.2
78 | CTCR | ≤ 0.2
79 | TNDG | ≤ 0.2
80 | KDHA | ≤ 0.2
81 | RNSS | 0.273
82 | SLRH | ≤ 0.2
83 | IKPG | ≤ 0.2
84 | PAKA | ≤ 0.2
85 | LSEV | ≤ 0.2
86 | KYTQ | ≤ 0.2
87 | GSWR | ≤ 0.2
88 | MYLC | ≤ 0.2
89 | MTRP | ≤ 0.2
90 | VLVG | ≤ 0.2
91 | RVEC | ≤ 0.2
92 | RWNT | 0.313
93 | KGPD | ≤ 0.2
94 | SSVR | ≤ 0.2
95 | IAHL | ≤ 0.2
96 | VANW | ≤ 0.2
97 | WDRA | ≤ 0.2
98 | WFKR | ≤ 0.2
99 | RWIY | ≤ 0.2
100 | FPGE | ≤ 0.2

Row | Variant | one-hybrid fitness for binding NBS DNA
101 | AGNA | ≤ 0.2
102 | CFSF | ≤ 0.2
103 | VSYG | ≤ 0.2
104 | CNTS | ≤ 0.2
105 | RSNR | 0.526
106 | APTW | ≤ 0.2
107 | QNHD | ≤ 0.2
108 | EYRG | ≤ 0.2
109 | GSMP | ≤ 0.2
110 | QAYH | ≤ 0.2
111 | RWQE | ≤ 0.2
112 | RRRT | 0.786
113 | RTTM | ≤ 0.2
114 | HLAD | ≤ 0.2
115 | EPEC | ≤ 0.2
116 | SFEC | ≤ 0.2
117 | HVCP | ≤ 0.2
118 | TKNF | ≤ 0.2
119 | KWYG | ≤ 0.2
120 | QMIV | ≤ 0.2
121 | IPPG | ≤ 0.2
122 | LLSF | ≤ 0.2
123 | GTIG | ≤ 0.2
124 | PKLW | ≤ 0.2
125 | YVTY | ≤ 0.2

Row | Variant | one-hybrid fitness for binding NBS DNA
126 | YIDA | ≤ 0.2
127 | ALKF | ≤ 0.2
128 | HSPD | ≤ 0.2
129 | GWSS | ≤ 0.2
130 | QRNH | 0.598
131 | GPTY | ≤ 0.2
132 | VVSS | ≤ 0.2
133 | APRI | ≤ 0.2
134 | PTSS | ≤ 0.2
135 | RIHF | ≤ 0.2
136 | QVAI | ≤ 0.2
137 | CICK | ≤ 0.2
138 | KNGM | ≤ 0.2
139 | GPKH | ≤ 0.2
140 | YGRD | ≤ 0.2
141 | RDVG | ≤ 0.2
142 | IDDD | ≤ 0.2
143 | RPET | ≤ 0.2
144 | PRHQ | ≤ 0.2
145 | TTFL | ≤ 0.2
146 | RAYL | ≤ 0.2
147 | NLMT | ≤ 0.2
148 | RRHP | ≤ 0.2
149 | HHYW | ≤ 0.2
150 | TNGT | ≤ 0.2

Row | Variant | one-hybrid fitness for binding NBS DNA
151 | LNLK | ≤ 0.2
152 | QNHT | ≤ 0.2
153 | SDEC | ≤ 0.2
154 | KQEC | ≤ 0.2
155 | GFYR | ≤ 0.2
156 | KDYT | ≤ 0.2
157 | ELHV | ≤ 0.2
158 | KRSF | ≤ 0.2
159 | RCVV | ≤ 0.2
160 | QKFL | ≤ 0.2
161 | WWPT | ≤ 0.2
162 | SAHY | ≤ 0.2
163 | PLCY | ≤ 0.2
164 | TNSR | ≤ 0.2
165 | VTAR | ≤ 0.2
166 | SPNG | ≤ 0.2
167 | AHHY | ≤ 0.2
168 | PVPS | ≤ 0.2
169 | HLWS | ≤ 0.2
170 | LQRS | ≤ 0.2
171 | WPLK | ≤ 0.2
172 | SDDL | ≤ 0.2
173 | NNAP | ≤ 0.2
174 | NRKR | 0.309
175 | SYKN | ≤ 0.2

Row | Variant | one-hybrid fitness for binding NBS DNA
176 | DNTR | ≤ 0.2
177 | AARS | ≤ 0.2
178 | YSLI | ≤ 0.2
179 | CPHM | ≤ 0.2
180 | SMTI | ≤ 0.2
181 | YGNL | ≤ 0.2
182 | RFNT | 0.279
183 | NDGY | ≤ 0.2
184 | TLDR | ≤ 0.2
185 | KRGV | ≤ 0.2
186 | RDSK | ≤ 0.2
187 | AKEW | ≤ 0.2
188 | HGIG | ≤ 0.2
189 | CVWS | ≤ 0.2
190 | QHRH | 0.494
191 | FASY | ≤ 0.2
192 | NMYT | ≤ 0.2
193 | QMRC | 0.406
194 | RKFQ | ≤ 0.2
195 | WKTT | ≤ 0.2
